{"source": "paper PMC12820563", "note": "The list shows a part of the results. The list includes weakly bound sequences."}
{"target": "T1, MBP-FoxP3dN (UniProt Q99JB6)", "T1 sequence": "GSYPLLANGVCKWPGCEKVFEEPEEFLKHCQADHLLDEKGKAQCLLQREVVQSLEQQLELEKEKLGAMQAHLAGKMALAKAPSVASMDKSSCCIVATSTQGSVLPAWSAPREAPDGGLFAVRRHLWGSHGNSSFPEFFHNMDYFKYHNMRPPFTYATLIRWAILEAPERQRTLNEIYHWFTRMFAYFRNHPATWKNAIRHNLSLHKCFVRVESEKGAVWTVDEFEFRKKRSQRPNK", "assay": "PD-seq (MBP pull-down with sequencing)", "details": "20 mM Tris-HCl pH 7.5, 100 mM NaCl, 1.5 mM MgCl2, 0.4 uM protein, 0.1 uM dsDNA library, 30 min, room temperature, amylose pull-down; high values mean tight binding; double strand, one strand shown"}
{"sequence": "GATGATTGTTCTCCCAGCTGATGAATTAATATTCTCGAGTAAACAAATTTTCCTAATCTTTCTGTTCAAGCGCCATCTAC", "binding signal (RPM ratio (pull-down/input))": 0.859}
{"sequence": "GATGATTGTTCTCCCAGCTGATGAATTACCAAGCTCGAGTAAACAAATTTTCCTAATCTTTCTGTTCAAGCGCCATCTAC", "binding signal (RPM ratio (pull-down/input))": 0.305}
{"sequence": "GATGATTGTTCTCCCAGCTGATGAATTCACCGAGTCGAGTAAACAAATTTTCCTAATCTTTCTGTTCAAGCGCCATCTAC", "binding signal (RPM ratio (pull-down/input))": 0.204}
{"sequence": "GATGATTGTTCTCCCAGCTGATGAATTCTGTCTATCGAGTAAACAAATTTTCCTAATCTTTCTGTTCAAGCGCCATCTAC", "binding signal (RPM ratio (pull-down/input))": 2.88}
{"sequence": "GATGATTGTTCTCCCAGCTGATGAATTGTCCCCGTCGAGTAAACAAATTTTCCTAATCTTTCTGTTCAAGCGCCATCTAC", "binding signal (RPM ratio (pull-down/input))": 0.293}
{"sequence": "GATGATTGTTCTCCCAGCTGATGAATTGAGGCTTTCGAGTAAACAAATTTTCCTAATCTTTCTGTTCAAGCGCCATCTAC", "binding signal (RPM ratio (pull-down/input))": 1.16}
{"sequence": "GATGATTGTTCTCCCAGCTGATGAATTTCGCCCTTCGAGTAAACAAATTTTCCTAATCTTTCTGTTCAAGCGCCATCTAC", "binding signal (RPM ratio (pull-down/input))": 1.46}
{"sequence": "GATGATTGTTCTCCCAGCTGATGAATTTACGTTGTCGAGTAAACAAATTTTCCTAATCTTTCTGTTCAAGCGCCATCTAC", "binding signal (RPM ratio (pull-down/input))": 0.962}
{"sequence": "GATGATTGTTCTCCCAGCTGATGAATTAGCTAGGTCGAGTAAACAAATTTTCCTAATCTTTCTGTTCAAGCGCCATCTAC", "binding signal (RPM ratio (pull-down/input))": 0.392}
{"sequence": "GATGATTGTTCTCCCAGCTGATGAATTGAATCGTTCGAGTAAACAAATTTTCCTAATCTTTCTGTTCAAGCGCCATCTAC", "binding signal (RPM ratio (pull-down/input))": 0.421}
{"sequence": "GATGATTGTTCTCCCAGCTGATGAATTTTGTACCTCGAGTAAACAAATTTTCCTAATCTTTCTGTTCAAGCGCCATCTAC", "binding signal (RPM ratio (pull-down/input))": 2.04}
{"sequence": "GATGATTGTTCTCCCAGCTGATGAATTAGCCGATTCGAGTAAACAAATTTTCCTAATCTTTCTGTTCAAGCGCCATCTAC", "binding signal (RPM ratio (pull-down/input))": 0.287}
{"sequence": "GATGATTGTTCTCCCAGCTGATGAATTCACGAGTTCGAGTAAACAAATTTTCCTAATCTTTCTGTTCAAGCGCCATCTAC", "binding signal (RPM ratio (pull-down/input))": 0.381}
{"sequence": "GATGATTGTTCTCCCAGCTGATGAATTACAGGTTTCGAGTAAACAAATTTTCCTAATCTTTCTGTTCAAGCGCCATCTAC", "binding signal (RPM ratio (pull-down/input))": 0.581}
{"sequence": "GATGATTGTTCTCCCAGCTGATGAATTTCTAGATTCGAGTAAACAAATTTTCCTAATCTTTCTGTTCAAGCGCCATCTAC", "binding signal (RPM ratio (pull-down/input))": 0.247}
{"sequence": "GATGATTGTTCTCCCAGCTGATGAATTACTGCATTCGAGTAAACAAATTTTCCTAATCTTTCTGTTCAAGCGCCATCTAC", "binding signal (RPM ratio (pull-down/input))": 6.01}
{"sequence": "GATGATTGTTCTCCCAGCTGATGAATTACAGAGTTCGAGTAAACAAATTTTCCTAATCTTTCTGTTCAAGCGCCATCTAC", "binding signal (RPM ratio (pull-down/input))": 0.414}
{"sequence": "GATGATTGTTCTCCCAGCTGATGAATTTGCGCTATCGAGTAAACAAATTTTCCTAATCTTTCTGTTCAAGCGCCATCTAC", "binding signal (RPM ratio (pull-down/input))": 1.33}
{"sequence": "GATGATTGTTCTCCCAGCTGATGAATTTCCTACGTCGAGTAAACAAATTTTCCTAATCTTTCTGTTCAAGCGCCATCTAC", "binding signal (RPM ratio (pull-down/input))": 0.26}
{"sequence": "GATGATTGTTCTCCCAGCTGATGAATTGCACCGATCGAGTAAACAAATTTTCCTAATCTTTCTGTTCAAGCGCCATCTAC", "binding signal (RPM ratio (pull-down/input))": 0.71}
{"sequence": "GATGATTGTTCTCCCAGCTGATGAATTCCGTATTTCGAGTAAACAAATTTTCCTAATCTTTCTGTTCAAGCGCCATCTAC", "binding signal (RPM ratio (pull-down/input))": 2.56}
{"sequence": "GATGATTGTTCTCCCAGCTGATGAATTCTCGCCCTCGAGTAAACAAATTTTCCTAATCTTTCTGTTCAAGCGCCATCTAC", "binding signal (RPM ratio (pull-down/input))": 0.446}
{"sequence": "GATGATTGTTCTCCCAGCTGATGAATTAAGCCGATCGAGTAAACAAATTTTCCTAATCTTTCTGTTCAAGCGCCATCTAC", "binding signal (RPM ratio (pull-down/input))": 0.427}
{"sequence": "GATGATTGTTCTCCCAGCTGATGAATTACACCGTTCGAGTAAACAAATTTTCCTAATCTTTCTGTTCAAGCGCCATCTAC", "binding signal (RPM ratio (pull-down/input))": 0.568}
{"sequence": "GATGATTGTTCTCCCAGCTGATGAATTACATTGCTCGAGTAAACAAATTTTCCTAATCTTTCTGTTCAAGCGCCATCTAC", "binding signal (RPM ratio (pull-down/input))": 0.881}
{"sequence": "GATGATTGTTCTCCCAGCTGATGAATTGGCAACCTCGAGTAAACAAATTTTCCTAATCTTTCTGTTCAAGCGCCATCTAC", "binding signal (RPM ratio (pull-down/input))": 1.43}
{"sequence": "GATGATTGTTCTCCCAGCTGATGAATTGGTCCGCTCGAGTAAACAAATTTTCCTAATCTTTCTGTTCAAGCGCCATCTAC", "binding signal (RPM ratio (pull-down/input))": 0.274}
{"sequence": "GATGATTGTTCTCCCAGCTGATGAATTACACATATCGAGTAAACAAATTTTCCTAATCTTTCTGTTCAAGCGCCATCTAC", "binding signal (RPM ratio (pull-down/input))": 0.87}
{"sequence": "GATGATTGTTCTCCCAGCTGATGAATTGTCAATGTCGAGTAAACAAATTTTCCTAATCTTTCTGTTCAAGCGCCATCTAC", "binding signal (RPM ratio (pull-down/input))": 0.491}
{"sequence": "GATGATTGTTCTCCCAGCTGATGAATTTGGGTGCTCGAGTAAACAAATTTTCCTAATCTTTCTGTTCAAGCGCCATCTAC", "binding signal (RPM ratio (pull-down/input))": 0.727}
{"sequence": "GATGATTGTTCTCCCAGCTGATGAATTAAGTATGTCGAGTAAACAAATTTTCCTAATCTTTCTGTTCAAGCGCCATCTAC", "binding signal (RPM ratio (pull-down/input))": 2.38}
